In article PMC7819943, “Rice protein-binding microarrays: a tool to detect cis-acting elements near promoter regions in rice”:
The other results are listed elsewhere or left out.

Target: T1, OsWOX13 (Oryza sativa, UniProt Q5QMM3 1-267)
T1 sequence: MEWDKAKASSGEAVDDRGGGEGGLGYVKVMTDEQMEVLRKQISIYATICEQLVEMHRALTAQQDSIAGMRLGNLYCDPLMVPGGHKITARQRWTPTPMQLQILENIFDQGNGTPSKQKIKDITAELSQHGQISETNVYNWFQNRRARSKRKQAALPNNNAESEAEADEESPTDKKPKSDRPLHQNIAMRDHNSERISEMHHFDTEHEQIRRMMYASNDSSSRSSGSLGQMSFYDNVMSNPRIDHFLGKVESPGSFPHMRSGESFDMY
Experiment: protein-binding microarray (RPBM); PBS, 2% BSA, 51.3 ng/ul salmon testes DNA, 50 uM zinc acetate, 200 nM TF, 25 C, 1 h; high values mean tight binding
Conditions: protein: recombinant; tags: N-terminal polyhistidine and DsRed monomer fusion (pET32a); label: CyDye5-dUTP incorporated in the synthesized complementary strand; 3' TTTTT single-stranded linker to array surface; dsDNA, one strand shown
Method in brief: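 The binding signal is fluorescence intensity per array feature (arbitrary units). Readings came from an Axon 4000B scanner after a washed, 2% BSA-blocked, double-stranded custom Agilent array had been incubated for 1 h at 25 °C with 200 nM protein and 50 µM zinc acetate. The protein was a Ni–NTA-purified transcription factor fused N-terminally to polyhistidine and DsRed, expressed in E. coli BL21-CodonPlus.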

Question: How did the binding signal turn out when “CACACCTCTAATTATAAATTTATAATATCCTTTAGTTCCCCGGAGTCACCTAGTGCAG” was run?
Answer: 20400 fluorescence intensity (a.u.)

Question: “ACATAAAATTGATGTTACTGGATTTATCATTAATCAAACTCGGAGTCACCTAGTGCAG” was tested. Which binding signal did it give?
Answer: 19700 fluorescence intensity (a.u.)

Question: How did the binding signal turn out when “GTCAATCCACTGTCAATTTCTCTTGGTTCTGAATTTCAGTCGGAGTCACCTAGTGCAG” was run?
Answer: 10200 fluorescence intensity (a.u.)

Question: “TAATAATAAAACAAATTACAGATTCTACCTATAAACTGCGCGGAGTCACCTAGTGCAG” was tested. Which binding signal did it give?
Answer: 7190 fluorescence intensity (a.u.)

Question: “TAGATTGATTTCTAATTTACAGATTAATGCGCTAGTATTTCGGAGTCACCTAGTGCAG” was tested. Which binding signal did it give?
Answer: 51100 fluorescence intensity (a.u.)

Question: For “ATATTTTAATTGGATCATCATCGTCGTTAGTCCGTCCTCACGGAGTCACCTAGTGCAG”, which binding signal is on record?
Answer: 14900 fluorescence intensity (a.u.)

Question: Which binding signal does the source give for “CTATCAATAATTAAAATGTGTGCCTTTTCACTATCTTTACCGGAGTCACCTAGTGCAG” here?
Answer: 12900 fluorescence intensity (a.u.)

Question: For “AAGATTTAATTGTAATGAATCTAACAACATAATTTGTTCACGGAGTCACCTAGTGCAG”, which binding signal is on record?
Answer: 32800 fluorescence intensity (a.u.)

Question: With “TTTAGTGAACGATTTGATTGTTGGGGTGAGACAGGCCCAGCGGAGTCACCTAGTGCAG” as the sequence, how does the binding signal read?
Answer: 5530 fluorescence intensity (a.u.)

Question: For “CACTACAGCCTGAAGCTTGATTGGCAGATCATCTAAAATACGGAGTCACCTAGTGCAG”, which binding signal is on record?
Answer: 8480 fluorescence intensity (a.u.)

Question: With “TGGCCAAATTCTGTCAATTGCATTTGATGGAGCTGGGCTTCGGAGTCACCTAGTGCAG” as the sequence, how does the binding signal read?
Answer: 11200 fluorescence intensity (a.u.)

Question: With “ATGCACAATTTAAAACTAATCATGCATTAATGAAACTGTCCGGAGTCACCTAGTGCAG” as the sequence, how does the binding signal read?
Answer: 7400 fluorescence intensity (a.u.)

Question: For “GAAAGTGTGATTGATATTGATTCCTCTTAGCTAGGCTGCACGGAGTCACCTAGTGCAG”, which binding signal is on record?
Answer: 43500 fluorescence intensity (a.u.)

Question: With “TCTTTTAATTTTGTCATGGCTAAATTACTTGGCAGATGAACGGAGTCACCTAGTGCAG” as the sequence, how does the binding signal read?
Answer: 11000 fluorescence intensity (a.u.)

Question: With “ACATAATCACAAAATTTTACATTCAACTTACCCGATAATCCGGAGTCACCTAGTGCAG” as the sequence, how does the binding signal read?
Answer: 7740 fluorescence intensity (a.u.)

Question: “GCTAAACGTGAATTGTTTCAGTCCAGAACCAGACCATTGGCGGAGTCACCTAGTGCAG” was tested. Which binding signal did it give?
Answer: 3390 fluorescence intensity (a.u.)

Question: With “AATGCTTAATTATGTAAATTTGCAACCTATATATAAGACACGGAGTCACCTAGTGCAG” as the sequence, how does the binding signal read?
Answer: 25100 fluorescence intensity (a.u.)

Question: Which binding signal does the source give for “GCTGATGACTTTTCTCCCGGTTTCATATTTTCTTTTAGAACGGAGTCACCTAGTGCAG” here?
Answer: 8420 fluorescence intensity (a.u.)

Question: For “ATATATATATATATATATATATATATATATATACACAAGACGGAGTCACCTAGTGCAG”, which binding signal is on record?
Answer: 18900 fluorescence intensity (a.u.)

Question: How did the binding signal turn out when “GATGATTGATTGGGTTGGTTGGAACGTGCGATGGAATGATCGGAGTCACCTAGTGCAG” was run?
Answer: 65400 fluorescence intensity (a.u.)

Question: Which binding signal does the source give for “TAAACTACTTAATTAGCCATGTATAACATGTTAGATGTGTCGGAGTCACCTAGTGCAG” here?
Answer: 5140 fluorescence intensity (a.u.)

Question: How did the binding signal turn out when “CGGCACGAGCTGAGCTGATTGATCGGTGCATATGCATTCACGGAGTCACCTAGTGCAG” was run?
Answer: 5710 fluorescence intensity (a.u.)

Question: How did the binding signal turn out when “AAGTGATTGAAATTTAATTCATGATCCTAAACCATACAACCGGAGTCACCTAGTGCAG” was run?
Answer: 53200 fluorescence intensity (a.u.)

Question: “AGTAATTATTAATTCTTTTCCTATTATTTGATTCATTGTTCGGAGTCACCTAGTGCAG” was tested. Which binding signal did it give?
Answer: 29800 fluorescence intensity (a.u.)

Question: For “TAGTATTAGATGGATTGTTAAACTTTTAGGGCCAGTTCGCCGGAGTCACCTAGTGCAG”, which binding signal is on record?
Answer: 4800 fluorescence intensity (a.u.)

Question: Which binding signal does the source give for “GGGAACAAATTTTAGATAAGCCTGGATTGGAAAGAGAGTGCGGAGTCACCTAGTGCAG” here?
Answer: 4130 fluorescence intensity (a.u.)

Question: Which binding signal does the source give for “CCCTCTATAATTAGTGACTTGTAACCTCTTCTTCCCTTCCCGGAGTCACCTAGTGCAG” here?
Answer: 12300 fluorescence intensity (a.u.)

Question: “TGTTCATTTTATTAATCATGTGTTTTAAACAAGCCCCTTACGGAGTCACCTAGTGCAG” was tested. Which binding signal did it give?
Answer: 6940 fluorescence intensity (a.u.)

Question: With “CCAAATTTACAGCTATATAACTCGCCTCCTCGATCTTCTCCGGAGTCACCTAGTGCAG” as the sequence, how does the binding signal read?
Answer: 7870 fluorescence intensity (a.u.)

Question: Which binding signal does the source give for “TCCTAATTTCACCATTATCTTGAAGCTCCACTTGCTACCACGGAGTCACCTAGTGCAG” here?
Answer: 13200 fluorescence intensity (a.u.)

Question: Which binding signal does the source give for “TTCTGCTGCACCTAATTAATTAAATTTCCCCGCTATAATTCGGAGTCACCTAGTGCAG” here?
Answer: 11300 fluorescence intensity (a.u.)

Question: How did the binding signal turn out when “CAAGTAAATTGGAACACCAAAATGGAGTTGCGGCGGCCGACGGAGTCACCTAGTGCAG” was run?
Answer: 3610 fluorescence intensity (a.u.)

Question: With “TGATAATTTTCGATGGTCATCGGTGAAACTAAAAGGTTCCCGGAGTCACCTAGTGCAG” as the sequence, how does the binding signal read?
Answer: 4960 fluorescence intensity (a.u.)

Question: “AAATTTTCTTTAATTGATCCGACTCCACCAAGAACACAACCGGAGTCACCTAGTGCAG” was tested. Which binding signal did it give?
Answer: 14100 fluorescence intensity (a.u.)

Question: “TTTGATAGTACTAAACAACATTAGGGGACCCACCTGTCAGCGGAGTCACCTAGTGCAG” was tested. Which binding signal did it give?
Answer: 4480 fluorescence intensity (a.u.)

Question: With “TTCTTGACGAGATTGGGCGCATGACAGTGAGCATTTTCCACGGAGTCACCTAGTGCAG” as the sequence, how does the binding signal read?
Answer: 16500 fluorescence intensity (a.u.)

Question: Which binding signal does the source give for “GGAATCTGGGAGGTGGGTGGGCCCCACGGCGGAGACTCCGCGGAGTCACCTAGTGCAG” here?
Answer: 3490 fluorescence intensity (a.u.)

Question: “CTATAAATTTAGCCAAACTTAACAAAATTTGACTAGAAAACGGAGTCACCTAGTGCAG” was tested. Which binding signal did it give?
Answer: 6080 fluorescence intensity (a.u.)

Question: With “TTTTACGTGACCTAATTGAATGGAGATACTATGGAAGGAACGGAGTCACCTAGTGCAG” as the sequence, how does the binding signal read?
Answer: 15800 fluorescence intensity (a.u.)

Question: Which binding signal does the source give for “TATGACTAATGCTTGATTCGCAATAGATGAATCACCAAAACGGAGTCACCTAGTGCAG” here?
Answer: 4150 fluorescence intensity (a.u.)

Question: “TCTCTTATGATTTGTTTGTCTGATACTCTGTCTGATCGGTCGGAGTCACCTAGTGCAG” was tested. Which binding signal did it give?
Answer: 14400 fluorescence intensity (a.u.)

Question: For “TTAATTGGATATATGATGTTGCAAATTTGCCTATTCAGAACGGAGTCACCTAGTGCAG”, which binding signal is on record?
Answer: 27000 fluorescence intensity (a.u.)

Question: With “GTCATATAACCGATGATTGAGGGAGTAATATATATAAATACGGAGTCACCTAGTGCAG” as the sequence, how does the binding signal read?
Answer: 5050 fluorescence intensity (a.u.)

Question: How did the binding signal turn out when “CATTTAATTTACAAACTATAAACGCACAAATATAAACAAACGGAGTCACCTAGTGCAG” was run?
Answer: 6690 fluorescence intensity (a.u.)

Question: For “CATGATTTTACAAGATCAGAGATCTATTATATCTAGTCTTCGGAGTCACCTAGTGCAG”, which binding signal is on record?
Answer: 14900 fluorescence intensity (a.u.)

Question: Which binding signal does the source give for “TGATTTGATTTTCAGTTTTGCACCATGCGATCGATCGAGACGGAGTCACCTAGTGCAG” here?
Answer: 4320 fluorescence intensity (a.u.)

Question: Which binding signal does the source give for “CGTTTTGTTAAATTAAAATAAATTAACAAGCCCAATTGCACGGAGTCACCTAGTGCAG” here?
Answer: 22300 fluorescence intensity (a.u.)

Question: How did the binding signal turn out when “CTTCCAAATTGATGAAGATAGCAGTACTTCAGAAGCTTCCCGGAGTCACCTAGTGCAG” was run?
Answer: 22200 fluorescence intensity (a.u.)

Question: How did the binding signal turn out when “GTTGCCAATTATTGTAGCTCACCAAACTACCCATTGTCCACGGAGTCACCTAGTGCAG” was run?
Answer: 11000 fluorescence intensity (a.u.)

Question: How did the binding signal turn out when “AACTAAAATTACATATGTAAATTTAGTTGATATGACATGTCGGAGTCACCTAGTGCAG” was run?
Answer: 24600 fluorescence intensity (a.u.)

Question: Which binding signal does the source give for “AATTAAAACTTAATTAATCACATGTTATTACTACCTCGTTCGGAGTCACCTAGTGCAG” here?
Answer: 15500 fluorescence intensity (a.u.)

Question: Which binding signal does the source give for “TGTGTGTGTTTTAATTAATTAACATTTATATAAATATGAACGGAGTCACCTAGTGCAG” here?
Answer: 14100 fluorescence intensity (a.u.)

Question: “ATCCATAATCAATACTAATAGGGTTTTCATTGACCAGATACGGAGTCACCTAGTGCAG” was tested. Which binding signal did it give?
Answer: 9650 fluorescence intensity (a.u.)

Question: How did the binding signal turn out when “AAGAGTGACACTGCCAATTATTTAAGAACGGAGGGAGTACCGGAGTCACCTAGTGCAG” was run?
Answer: 4900 fluorescence intensity (a.u.)
